biological target: LRRK2(G2019S mutation, GST-LRRK2(amino acids 970-2527)) (Homo sapiens (Human), UniProt Q5S007, G2019S); experiment: LRRK2 Km ATP LanthaScreen Assay; conditions: not given

Molecule `C[C@H]1CN(c2cc(-c3n[nH]c4ccc(OC5(C)CC5)cc34)ncn2)CCN1C` [Example 237] has an IC50 of 0.6 nM.

same assay, conditions: read-out: LRRK2 IC50; Km ATP LanthaScreen Assay, mean IC50

Point of comparison: `CC1(C)CN(c2cc(-c3n[nH]c4ccc(OC5(C)CC5)cc34)ncn2)CC(C)(C)O1` [Example 112], IC50 6.8 nM. Against it:
- COC1CCCN(c2cc(-c3n[nH]c4ccc(OC5(C)CC5)cc34)ncn2)C1 (stereo not shown) [Example 74] — within 1.5-fold, 5.7 nM
- CC1(Oc2ccc3[nH]nc(-c4cc(N5CC(O)(C(F)(F)F)C5)ncn4)c3c2)CC1 [Example 59] — 2.1-fold lower, 3.3 nM
- CCC1(Oc2ccc3[nH]nc(-c4cc(N5CCN(S(C)(=O)=O)CC5)ncn4)c3c2)CC1 [Example 219] — 10-fold lower, 0.67 nM
- CCC(=O)N1CCN(c2cc(-c3n[nH]c4ccc(OC5(C)CC5)cc34)ncn2)CC1 [Example 41] — 7.8-fold lower, 0.87 nM
- CC1(Oc2ccc3[nH]nc(-c4cc(N5CC(n6cccn6)C5)ncn4)c3c2)CC1 [Example 58] — within 1.5-fold, 5 nM
- CC1(Oc2cc3c(-c4cc(N5CCOCC5)ncn4)n[nH]c3cc2F)CC1 [Example 149] — 9.6-fold lower, 0.71 nM
- CCC1(Oc2ccc3[nH]nc(-c4cc(N5CC[C@@H](N)C5)ncn4)c3c2)CC1 [Example 212] — 3.4-fold lower, 1.98 nM
- CCC1(Oc2ccc3[nH]nc(-c4cc(N5CCN(C)CC5)ncn4)c3c2)CC1 [Example 218] — 4.6-fold lower, 1.49 nM
- CC1(Oc2cc3c(-c4cc(N5CCN(C(=O)CO)CC5)ncn4)n[nH]c3cc2F)CC1 [Example 179] — 4.2-fold lower, 1.6 nM
- CC1(Oc2ccc3[nH]nc(-c4cc(N5C[C@@H]6C[C@H]5CO6)ncn4)c3c2)CC1 [Example 82] — within 1.5-fold, 6.3 nM
- CC1(Oc2ccc3[nH]nc(-c4cc(N5CC[C@H](F)C5)ncn4)c3c2)CC1 [Example 70] — 2.5-fold lower, 2.7 nM
- CCS(=O)(=O)N1CCN(c2cc(-c3n[nH]c4ccc(OC5(C)CC5)cc34)ncn2)CC1 [Example 33] — 11-fold lower, 0.63 nM
- CCN1CCN(c2cc(-c3n[nH]c4ccc(OC5(C)CC5)cc34)ncn2)CC1 [Example 126] — 3.6-fold lower, 1.9 nM
- COc1ccnc(N2CCN(c3cc(-c4n[nH]c5cc(F)c(OC6(C)CC6)cc45)ncn3)CC2)c1 [Example 175] — 3.6-fold lower, 1.9 nM
- C[C@H]1CN(c2cc(-c3n[nH]c4ccc(OC5(C)CC5)cc34)ncn2)CCN1Cc1cocn1 [Example 130] — 9.7-fold lower, 0.7 nM
- CC1(Oc2cc3c(-c4cc(N5CC[C@H](N)C5)ncn4)n[nH]c3cc2F)CC1 [Example 204] — 4.3-fold lower, 1.59 nM
- CC1(Oc2ccc3[nH]nc(-c4cc(N5CC(S(C)(=O)=O)C5)ncn4)c3c2)CC1 [Example 5] — 3.2-fold lower, 2.15 nM
- CCC1(Oc2ccc3[nH]nc(-c4cc(N5C[C@H](N)C[C@@H]5C)ncn4)c3c2)CC1 [Example 215] — 2.6-fold lower, 2.59 nM
- CC1(Oc2ccc3[nH]nc(-c4cc(N5CCO[C@@H](CO)C5)ncn4)c3c2)CC1 [Example 23] — 9.1-fold lower, 0.75 nM
- CC1(Oc2ccc3[nH]nc(-c4cc(N5CCC(O)(C(F)(F)F)CC5)ncn4)c3c2)CC1 [Example 79] — 2.3-fold lower, 2.9 nM
- CC1(Oc2ccc3[nH]nc(-c4cc(N5CCN(CCO)CC5)ncn4)c3c2)CC1 [Example 43] — 5.7-fold lower, 1.2 nM
- CCC1(Oc2ccc3[nH]nc(-c4cc(N5CC6CCC(C5)O6)ncn4)c3c2)COC1 [Example 198] — 2.4-fold lower, 2.8 nM
- CC1(Oc2ccc3[nH]nc(-c4cc(N5CCCCC5)ncn4)c3c2)CC1 [Example 44] — 2.2-fold lower, 3.1 nM
- CC1(Oc2ccc3[nH]nc(-c4cc(N5CCc6oc(C7CC7)nc6C5)ncn4)c3c2)CC1 [Example 60] — within 1.5-fold, 7.7 nM
- CC1(Oc2ccc3[nH]nc(-c4cc(N5CCC6(CCNC6=O)CC5)ncn4)c3c2)CC1 [Example 15] — 7.9-fold lower, 0.86 nM
- C[C@@H]1CN(c2cc(-c3n[nH]c4ccc(OC5CCOCC5)cc34)ncn2)C[C@H](C)O1 [Example V1] — 3.5-fold higher, 24 nM
- C[C@H]1C[C@@H](N)CN1c1cc(-c2n[nH]c3cc(F)c(OC4(C)CC4)cc23)ncn1 [Example 205] — 5.3-fold lower, 1.29 nM
- CC1(Oc2ccc3[nH]nc(-c4cc(N5CCN6C(=O)OCC6C5)ncn4)c3c2)CC1 (stereo not shown) [Example 111] — 4.2-fold lower, 1.6 nM
- CC1(C)CN(c2cc(-c3n[nH]c4cc(F)c(OC5(C)CC5)cc34)ncn2)CCO1 [Example 190] — 4.5-fold lower, 1.5 nM
- CC1(Oc2ccc3[nH]nc(-c4cc(N5CCOC(COc6ccccc6)C5)ncn4)c3c2)CC1 (stereo not shown) [Example 101] — 2.4-fold lower, 2.8 nM
- C[C@@H]1CN(c2cc(-c3n[nH]c4ccc(O[C@H]5CCOC5)cc34)ncn2)C[C@H](C)O1 [Example 164] — within 1.5-fold, 6.86 nM
- CC1(Oc2ccc3[nH]nc(-c4cc(N5CCN(Cc6ccco6)CC5)ncn4)c3c2)CC1 [Example 118] — 4-fold lower, 1.7 nM
- CC1(Oc2ccc3[nH]nc(-c4cc(N5CCC(n6ccnc6)C5)ncn4)c3c2)CC1 (stereo not shown) [Example 78] — 2.6-fold lower, 2.6 nM
- CO[C@H]1CN(c2cc(-c3n[nH]c4ccc(OC5(C)CC5)cc34)ncn2)C[C@@H]1O [Example 54] — within 1.5-fold, 4.6 nM
- CC(CC1CC1)N1CCN(c2cc(-c3n[nH]c4ccc(OC5(C)CC5)cc34)ncn2)C[C@H]1C (stereo partly shown) [Example 141] — 2.7-fold lower, 2.5 nM
- CC1(Oc2ccc3[nH]nc(-c4cc(N5CC[C@H](N)C5)ncn4)c3c2)CC1 [Example 22] — 3.1-fold lower, 2.19 nM
- CC1(Oc2cc3c(-c4cc(N5CCC(F)(CO)CC5)ncn4)n[nH]c3cc2F)CC1 [Example 185] — 2.5-fold lower, 2.7 nM
- CN1CC2(CCN(c3cc(-c4n[nH]c5ccc(OC6(C)CC6)cc45)ncn3)CC2)CC1=O [Example 37] — 9.7-fold lower, 0.7 nM
- CC1(Oc2ccc3[nH]nc(-c4cc(N5CC[C@@H](N)C5)ncn4)c3c2)CC1 [Example 21] — 3.4-fold lower, 1.99 nM
- Cc1nc2c(o1)CCN(c1cc(-c3n[nH]c4ccc(OC5(C)CC5)cc34)ncn1)C2 [Example 86] — 2.2-fold lower, 3.1 nM
- COCC(C)N1CCN(c2cc(-c3n[nH]c4ccc(OC5(C)CC5)cc34)ncn2)C[C@H]1C (stereo partly shown) [Example 139] — 11-fold lower, 0.6 nM
- CC1(Oc2ccc3[nH]nc(-c4cc(N5CCC6(CCNC6=O)C5)ncn4)c3c2)CC1 (stereo not shown) [Example 31] — 5.3-fold lower, 1.29 nM
- CCN1CCN(c2cc(-c3n[nH]c4ccc(OC5(C)CC5)cc34)ncn2)CC1=O [Example 19] — 6.3-fold lower, 1.08 nM
- C[C@H]1[C@H](N)[C@@H](O)CN1c1cc(-c2n[nH]c3ccc(OC4(C)CC4)cc23)ncn1 [Example 222] — 2.9-fold lower, 2.33 nM
- COCC1CN(c2cc(-c3n[nH]c4cc(F)c(OC5(C)CC5)cc34)ncn2)CCO1 (stereo not shown) [Example 171] — 4.2-fold lower, 1.6 nM
- CC1(Oc2ccc3[nH]nc(-c4cc(N5CC(n6cnnc6)C5)ncn4)c3c2)CC1 [Example 67] — 2.1-fold lower, 3.3 nM
- CC1(Oc2ccc3[nH]nc(-c4cc(NCCO)ncn4)c3c2)CC1 [Example 90] — within 1.5-fold, 6.3 nM
- CC1(Oc2ccc3[nH]nc(-c4cc(N5CCN(CC6CC6)C(=O)C5)ncn4)c3c2)CC1 [Example 92] — 4.5-fold lower, 1.5 nM
- C[C@H]1CN(c2cc(-c3n[nH]c4ccc(OC5(C)CC5)cc34)ncn2)CCN1S(C)(=O)=O [Example U2] — 5.8-fold lower, 1.18 nM
- CC1(Oc2ccc3[nH]nc(-c4cc(N5CCN6CCCC6C5)ncn4)c3c2)CC1 (stereo not shown) [Example 73] — 3.6-fold lower, 1.9 nM
- CC1(Oc2cc3c(-c4cc(N5CCS(=O)(=O)CC5)ncn4)n[nH]c3cc2F)CC1 [Example 186] — 11-fold lower, 0.6 nM
- CC1(Oc2ccc3[nH]nc(-c4cc(N5CCC(O)CC5)ncn4)c3c2)CC1 [Example 228] — 8.6-fold lower, 0.79 nM
- CC1(Oc2cc3c(-c4cc(N5C6CCC5COC6)ncn4)n[nH]c3cc2F)CC1 [Example 194] — 6.2-fold lower, 1.1 nM
- CC1(Oc2cc3c(-c4cc(N5CC[C@@H](N)C5)ncn4)n[nH]c3cc2F)CC1 [Example 203] — 4.9-fold lower, 1.38 nM
- CC1(Oc2ccc3[nH]nc(-c4cc(N5CCN(c6ncns6)CC5)ncn4)c3c2)CC1 [Example 145] — 4.5-fold lower, 1.5 nM
- C[C@H]1CN(c2cc(-c3n[nH]c4ccc(OC5(C)CC5)cc34)ncn2)CCN1C [Example 26] — lower, < 0.6 nM
- COCCOC1CCN(c2cc(-c3n[nH]c4ccc(OC5(C)CC5)cc34)ncn2)CC1 [Example 227] — 7.2-fold lower, 0.94 nM
- c1nc(-c2n[nH]c3ccc(O[C@H]4CCOC4)cc23)cc(N2CCOCC2)n1 [Example 163] — 1.8-fold higher, 12.1 nM
- CO[C@H]1CCN(c2cc(-c3n[nH]c4ccc(OC5(C)CC5)cc34)ncn2)C1 [Example 12] — 4.8-fold lower, 1.42 nM
- C[C@H]1COCCN1c1cc(-c2n[nH]c3ccc(OC4(C)CC4)cc23)ncn1 [Example 117] — 3.1-fold lower, 2.2 nM
- CC(C)N1CCN(c2cc(-c3n[nH]c4ccc(OC5(C)CC5)cc34)ncn2)C[C@H]1C [Example 144] — 8.5-fold lower, 0.8 nM
- CC1(Oc2cc3c(-c4cc(N5CCN(c6ccncn6)CC5)ncn4)n[nH]c3cc2F)CC1 [Example 181] — 2.3-fold lower, 3 nM
- COCC(=O)N1CCN(c2cc(-c3n[nH]c4cc(F)c(OC5(C)CC5)cc34)ncn2)CC1 [Example 195] — 8.5-fold lower, 0.8 nM
- CCN1CCN(c2cc(-c3n[nH]c4ccc(OC5(C)CC5)cc34)ncn2)C[C@H]1C [Example 142] — 8.5-fold lower, 0.8 nM
- CC(=O)N1CCN(c2cc(-c3n[nH]c4ccc(OC5(C)CC5)cc34)ncn2)CC1 [Example 48] — 5.7-fold lower, 1.2 nM
- CC1(Oc2ccc3[nH]nc(-c4cc(N5CCN(CCC(F)(F)F)CC5)ncn4)c3c2)CC1 [Example 127] — 6.8-fold lower, 1 nM
- CC1(Oc2ccc3[nH]nc(-c4cc(N5CCn6ncnc6C5)ncn4)c3c2)CC1 [Example 88] — 1.7-fold lower, 3.9 nM
- C[C@@H]1COC[C@@H](C)N1c1cc(-c2n[nH]c3ccc(OC4(C)CC4)cc23)ncn1 [Example 107] — 5.8-fold higher, 39.1 nM
- CCCN1CCN(c2cc(-c3n[nH]c4cc(F)c(OC5(C)CC5)cc34)ncn2)CC1 [Example 158] — 6.6-fold lower, 1.03 nM
- COCC1CN(c2cc(-c3n[nH]c4ccc(OC5(C)CC5)cc34)ncn2)CCO1 (stereo not shown) [Example 105] — 8.5-fold lower, 0.8 nM
- CC1(Oc2ccc3[nH]nc(-c4cc(N5CCOC(C(F)(F)F)C5)ncn4)c3c2)CC1 (stereo not shown) [Example 99] — 2.1-fold lower, 3.2 nM
- C[C@H]1[C@H](O)[C@@H](O)CN1c1cc(-c2n[nH]c3ccc(OC4(C)CC4)cc23)ncn1 [Example 220] — 3.8-fold lower, 1.77 nM
- CCC1(Oc2ccc3[nH]nc(-c4cc(N5CC6CCC(C5)O6)ncn4)c3c2)CC1 [Example 209] — 2.1-fold lower, 3.2 nM
- CN(C)[C@H]1CN(c2cc(-c3n[nH]c4ccc(OC5(C)CC5)cc34)ncn2)C[C@@H]1O [Example 53] — 2.5-fold lower, 2.7 nM
- CC1(Oc2ccc3[nH]nc(-c4cc(N5CCN(Cc6cocn6)CC5)ncn4)c3c2)CC1 [Example 119] — 3.6-fold lower, 1.9 nM
- C[C@H]1CN(c2cc(-c3n[nH]c4cc(F)c(OC5(C)CC5)cc34)ncn2)CCO1 [Example 152] — 5.1-fold lower, 1.33 nM
- CCN(CC)c1cc(-c2n[nH]c3ccc(OC4(C)CC4)cc23)ncn1 [Example 72] — 2.7-fold higher, 18.3 nM

— US9493440B2, “Compounds inhibiting leucine-rich repeat kinase enzyme activity” (Merck Sharp & Dohme Corp., priority 2013, dated 2016)
